About 50,000 (12%) of roughly 420,000 compounds were called active. Inconclusive means that the source gave no clear call. Such entries were picked first, then a sample of the others. The call rests on the fitted dose curve; in most records, active means well fitted inhibition curve with a large enough effect; inconclusive means small, poorly fitted or top-dose-only effect; inactive means flat fitted curve, though single readings scatter. No potency is given beside an inconclusive call; the fits are too rough.
Assay: qHTS for Inhibitors of human tyrosyl-DNA phosphodiesterase 1 (TDP1): qHTS in cells in presence of CPT; further: nearly all actives have a fitted effect of over 55% in size
Details: chicken DT40 Tdp1-/-;hTDP1 cells + 20 nM CPT, ATP luminescence, 48 h; activity change, negative = growth inhibition: at 46.2 µM (top of the series) unless noted
Procedure, shortened: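 Chicken DT40 Tdp1-/- cells complemented with human TDP1, 400 cells/well, exposed to compounds plus 20 nM camptothecin for at least 48 h at 37 C; viability read as ATP content by CellTiter-Glo luminescence.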
For `CN(C)S(=O)(=O)c1ccc(C(=O)N2CCN=C2SCc2ccccc2)cc1`, the Potency was inconclusive [inhibitor, single point]. In the case of `Cc1cc(NC(=O)C(C)SCC(=O)Nc2cccc(S(=O)(=O)N3CCCCCC3)c2)no1` (centres undefined), the Potency is reported as inconclusive [inhibitor, single point]. With `COC(=O)[C@@]12C[C@@H](CC(=O)NCc3ccc(OC)c(OC)c3)C(=O)N(Cc3ccccc3)C1=CCC(C)(C)C2` the Potency was active: 18.4 µM. For `COCOCCn1cc(CN2CCS(=O)(=O)N(Cc3ccc(-c4cccc(N(C)C)c4)cc3)C(C(C)C)C2=O)nn1` (centres undefined), the Potency was active: 14.6 µM. In the case of `Cc1ccc(C(=O)NN=CC(=O)c2ccccc2)c(C)c1`, the “activity change, negative = growth inhibition” value is reported as inactive: -15.2%. For `CCOC(=O)C1=CCC(c2cccn2C(=O)OC(C)(C)C)N(S(=O)(=O)c2ccc(C)cc2)C1` (centres undefined), the Potency was inconclusive [inhibitor, single point]. For `O=C(OCc1ccc([N+](=O)[O-])cc1)c1cc(S(=O)(=O)N2CCCCC2)ccc1N1CCOCC1`, the Potency was active: 14.6 µM. With `O=[N+]([O-])c1ccc2nc(-[n+]3c(-c4ccccc4)cc(-c4ccccc4)cc3-c3ccccc3)[nH]c2c1` the Potency was active: 23.1 µM. In the case of `COC(=O)[C@H]1C[C@@]2(O)CN(S(=O)(=O)c3ccc(C)cc3)C[C@@]2(OC(=O)NCc2ccccc2F)C[C@H]1C(=O)OC`, the Potency is reported as inconclusive [inhibitor, single point]. In the case of `CCOC(=O)C1(c2nc(N)cs2)COC(=O)C1` (centres undefined), the “activity change, negative = growth inhibition” value is reported as inactive: -7.59%. With `c1ccc(-c2onc(-c3ccco3)c2-c2ccc3[nH]ccc3c2)cc1` the Potency was active: 7.94 µM. With `Cc1ccc(NC(=O)CN2CCc3ccccc3C2)cc1S(=O)(=O)N1CCOCC1` the Potency was inconclusive [inhibitor, single point]. For `Cc1ccc(Nc2c(-c3ccc(N(C)C)cc3)nc3nc[nH]n23)cc1`, the Potency was inconclusive [inhibitor, partial curve]. In the case of `N/C(=N\OC(=O)c1ccc2ccccc2c1)c1ccccn1`, the Potency is reported as inconclusive [inhibitor, single point]. For `O=C(NCc1ccco1)/C(=C/C=C\c1ccccc1)NC(=O)c1ccc(Br)o1`, the Potency was active: 16.4 µM. In the case of `CCN1CCN(c2cc3c(nn2)Oc2ccccc2N3C)CC1`, the Potency is reported as inconclusive [inhibitor, single point]. With `COc1ccccc1CN1C(=O)C(Cc2ccccc2)ON=C1c1ncccc1C` (centres undefined) the Potency was inconclusive [inhibitor, single point]. For `O=C(O)CN(c1ccccn1)S(=O)(=O)c1ccccc1`, the Potency was inconclusive [inhibitor, single point]. In the case of `N#Cc1ccc(Cn2c(=O)oc3ccccc32)cc1`, the “activity change, negative = growth inhibition” value is reported as inactive: -1.99%. In the case of `O=C(c1cc(COc2c(F)cccc2F)on1)N1CCN(C2CCCCC2)C(=O)C1`, the Potency is reported as inconclusive [inhibitor, single point]. With `COc1ccc(O)c(CN2CCCC(N3CCN(c4ccc(F)cc4)CC3)C2)c1` (centres undefined) the Potency was inconclusive [inhibitor, single point]. In the case of `N#Cc1nc(N2CCCCC2)nc(N(c2ccccc2)c2ccccc2)n1`, the Potency is reported as active: 11.2 µM. For `CC(C)C[C@H](NC(=O)c1nc[nH]c1C(=O)N[C@@H](CCCCN)C(=O)OC(C)(C)C)C(=O)OC(C)(C)C`, the Potency was inconclusive [inhibitor, single point]. For `O=C(Cc1ccccc1)NCC1CCCO1` (centres undefined), the Potency was inconclusive [inhibitor, single point]. For `COc1ccc(C(C)NC(=O)CCc2ccccc2)cc1` (centres undefined), the “activity change, negative = growth inhibition” value was inactive: 9.61%. In the case of `COc1ccc(NC(=O)c2oc3ccccc3c2NC(=O)C2CCCO2)cc1OC` (centres undefined), the Potency is reported as inconclusive [inhibitor, partial curve, poor fit]. For `COC(=O)c1ccc(C(=O)NC2CCCc3c2cnn3-c2ccc(C)c(C)c2)cc1` (centres undefined), the Potency was active: 1.3 µM. For `CC(=O)OCC(=O)[C@H]1CC[C@H]2[C@@H]3CCC4=CC(=O)CC[C@]4(C)[C@H]3CC[C@]12C`, the Potency was inconclusive [inhibitor, single point]. With `COc1ccccc1C(=O)Nc1nnc(-c2ccco2)s1` the Potency was inconclusive [inhibitor, single point]. For `Cc1ccc(CN2CCN(Cc3ccccc3C(F)(F)F)CC2)cc1`, the Potency was inconclusive [inhibitor, single point]. With `CCn1c(SCC(=O)N2CCCc3ccccc32)nnc1-c1c[nH]c2ccccc12` the Potency was inconclusive [inhibitor, partial curve]. With `CCc1ccc(-c2cc(C)no2)cc1S(=O)(=O)N1CCN(c2ccc(OC)cc2)CC1` the Potency was active: 20.6 µM. For `CC(OC(=O)c1ccc2c(c1)OCO2)C(=O)NC1CCCCC1` (centres undefined), the activity change, negative = growth inhibition was inconclusive: -34.3% [inhibitor]. With `O=C(NCCCN1CCOCC1)C1Cc2c(ccc3ccccc23)O1` (centres undefined) the Potency was inconclusive [inhibitor, single point]. In the case of `Cn1nccc1-c1ccc(C(=O)NCc2ccco2)c2occc12`, the Potency is reported as inconclusive [inhibitor, single point]. In the case of `Cc1ccc2nc3c(cc2c1)c(NC(=O)C1CCCO1)nn3CC(C)C` (centres undefined), the “activity change, negative = growth inhibition” value is reported as inactive: -24.7%. In the case of `COc1ccc(NC(C)=O)cc1NC(=O)C1CCN(C(=O)Nc2ccccc2)CC1`, the “activity change, negative = growth inhibition” value is reported as inactive: 10.2%. In the case of `COc1ccc(/C=C(/NC(=O)c2ccccc2)c2nc3ccccc3[nH]2)cc1OC`, the Potency is reported as inconclusive [inhibitor, single point]. With `Cc1ccccc1C(=O)Nc1cccc(-c2ccc(N3CCOCC3)nn2)c1` the Potency was inconclusive [inhibitor, single point]. In the case of `O=C(C[n+]1ccccc1)Nc1ccccc1C(F)(F)F`, the “activity change, negative = growth inhibition” value is reported as inactive: -7.67%. In the case of `CN(Cc1ccccc1F)C(=O)CCNC(=O)c1ccc(C(C)(C)C)cc1`, the Potency is reported as inconclusive [inhibitor, partial curve]. With `O=c1oc2c(O)cccc2cc1-c1nc2ccccc2[nH]1` the Potency was inconclusive [inhibitor, partial curve]. For `O=C(NCC1CC1)c1onc(CSc2ccccc2)c1C(=O)NCC1CC1`, the Potency was inconclusive [inhibitor, single point]. With `CSc1nc(=O)c2c(n1C)NC(=O)CC2c1ccccc1OC(C)C` (centres undefined) the Potency was inconclusive [inhibitor, single point]. In the case of `CC1CC(C)CN(C(=O)CSc2ncnc3sccc23)C1` (centres undefined), the “activity change, negative = growth inhibition” value is reported as inactive: -12.3%. In the case of `COc1ccc(-c2nc3ccccc3n3c(-c4cccc(C)c4)c4c(=O)n(C)c(=O)n(C)c4c23)cc1`, the Potency is reported as active: 18.4 µM. With `CC[C@H](C)[C@@H](C(=O)N1CCNCC1)n1cc([C@@H](N)CC(C)C)nn1` the “activity change, negative = growth inhibition” value was inactive: 2.21%. In the case of `CC1Cc2nc(SCC(=O)Nc3ccc4c(c3)OCO4)n(CCc3ccccc3)c(=O)c2S1` (centres undefined), the Potency is reported as inconclusive [inhibitor, partial curve]. In the case of `OCCCNc1ncnc2[nH]ncc12`, the “activity change, negative = growth inhibition” value is reported as inactive: 5.05%. In the case of `O=c1[nH]c(C2CCN(S(=O)(=O)c3ccc(C(F)(F)F)cc3)CC2)nc2c1nnn2Cc1ccccc1`, the Potency is reported as inconclusive [inhibitor, single point]. In the case of `CN(C(=O)Cc1csc(-c2ccccc2)n1)c1c(N)n(Cc2ccccc2)c(=O)[nH]c1=O`, the “activity change, negative = growth inhibition” value is reported as inactive: -1.84%. With `COCCOC(=O)c1c(NC(=O)CNCc2ccco2)sc(C(N)=O)c1C` the Potency was inconclusive [inhibitor, single point]. For `O=C(CSc1ccc(F)cc1)N1CCC(c2nc3ccccc3s2)CC1`, the Potency was inconclusive [inhibitor, single point]. With `CCOC(=O)C1CCCN(c2c(NCCCN(CC)c3cccc(C)c3)c(=O)c2=O)C1` (centres undefined) the Potency was inconclusive [inhibitor, single point]. For `CCN1C(=O)/C(=C/C=C2/SCCN2C)SC1=S`, the Potency was inconclusive [inhibitor, single point]. For `COc1ccc(-c2cc(=O)c3ccccc3o2)cc1OC`, the Potency was inconclusive [inhibitor, partial curve, poor fit]. For `COc1ccc(-c2ccc3c(c2)c(Sc2ccccc2)c(-c2cc(OC)cc(OC)c2)n3C)cc1`, the “activity change, negative = growth inhibition” value was inactive: -2.03%. In the case of `Cc1nn(Cc2ccc(Cl)c(Cl)c2)c(C)c1NC(=O)c1noc2c1CCc1ccccc1-2`, the Potency is reported as active: 5.8 µM. For `COc1ccc(/C=N\NC(=O)c2ccccc2F)cc1COc1ccc(F)cc1`, the Potency was inconclusive [inhibitor, full curve]. With `CCc1ccc2c(c1)c(=O)c(S(=O)(=O)c1ccc(Cl)cc1)cn2CC` the Potency was inconclusive [inhibitor, single point]. In the case of `O=C(CC1(O)C(=O)N(CCc2ccccc2)c2ccc(Br)cc21)c1ccc(F)cc1` (centres undefined), the Potency is reported as inconclusive [inhibitor, single point]. With `COc1cccc(-c2cn3c(n2)sc2cc(C(=O)NCCCc4ccccc4)ccc23)c1` the Potency was active: 6.51 µM. In the case of `COc1cccc(NC(=O)Nc2nnc(Cc3ccccc3)s2)c1`, the Potency is reported as inconclusive [inhibitor, partial curve, poor fit]. For `COC(=O)CC1Oc2ccccc2-n2cc(-c3ccc(C)cc3)nc21` (centres undefined), the Potency was active: 5.8 µM. With `CCSc1nsc(NC(=O)Nc2cccc(F)c2)n1` the Potency was active: 20.6 µM. In the case of `COc1ccccc1N(C)c1cc2c(c3c1ccn3C)C1CCC2O1` (centres undefined), the Potency is reported as active: 23.1 µM. For `CCc1cc(C(=O)N2CCN(S(=O)(=O)c3ccc(Cl)cc3)CC2)sc1C`, the Potency was inconclusive [inhibitor, single point]. In the case of `COc1ccc(C(CNC(=O)c2cccc(NS(=O)(=O)c3ccccc3)c2)N(C)C)cc1` (centres undefined), the “activity change, negative = growth inhibition” value is reported as inactive: -26.5%. In the case of `COc1ccc(NC(=O)CSc2nccc(C)n2)cc1`, the “activity change, negative = growth inhibition” value is reported as inactive: -23.4%.

Reference: PubChem BioAssay AID686979 (National Center for Advancing Translational Sciences (NCATS), 2013)
On the % scale 0 is the no-effect control and ±100 the full control effect; potency means the concentration at half of the fitted maximal effect; tags describe the fitted curve by direction and shape.
